Results taken from PubChem BioAssay AID1671188 (National Center for Advancing Translational Sciences (NCATS), 2021).
Among all 100,000 compounds or so, about 250 (0.25%) were called active. The inconclusive results got no clear call from the source; some entries with a clear call stand among them for comparison. Calls follow the shape of the dose curve; as a rule, active = well fitted inhibition curve with a large enough effect; inconclusive = small, poorly fitted or top-dose-only effect; inactive = flat fitted curve, though single readings scatter. Potencies of inconclusive entries are left out as doubtful fits.

biological target: Alanine aminotransferase 2 (Homo sapiens) (UniProt Q8TD30); assay: Primary qHTS assay for inhibitors of Glutamate pyruvate transaminase 2 (GPT2); settings: Recombinant GPT2, coupled pyruvate oxidase/HRP Amplex Red fluorescence; activity change, negative = inhibition: at 57.7 µM (top of the series) unless noted; series mostly up to 57.7 µM; also: nearly all actives have a fitted effect of over 60% in size
Sequence of UniProt Q8TD30 (Q8TD30 whole entry, looked up): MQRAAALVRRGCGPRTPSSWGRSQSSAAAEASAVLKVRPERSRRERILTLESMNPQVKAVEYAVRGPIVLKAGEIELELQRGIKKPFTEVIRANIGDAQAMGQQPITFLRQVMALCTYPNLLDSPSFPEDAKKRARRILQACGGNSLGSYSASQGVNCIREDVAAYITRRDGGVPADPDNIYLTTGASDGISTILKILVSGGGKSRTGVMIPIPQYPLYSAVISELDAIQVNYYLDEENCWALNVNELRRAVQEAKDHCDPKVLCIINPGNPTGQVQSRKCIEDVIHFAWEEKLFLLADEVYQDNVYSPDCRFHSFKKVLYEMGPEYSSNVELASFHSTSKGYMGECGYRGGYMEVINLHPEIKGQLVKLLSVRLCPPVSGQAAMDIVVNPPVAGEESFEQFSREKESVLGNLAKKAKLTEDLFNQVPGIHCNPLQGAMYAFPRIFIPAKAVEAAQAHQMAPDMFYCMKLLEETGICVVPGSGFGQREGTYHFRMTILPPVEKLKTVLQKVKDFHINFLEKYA
Summary of the method: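 Inhibition is scored from Amplex Red fluorescence generated when pyruvate oxidase and HRP act on pyruvate released by GPT2. Reactions contain 10ng/uL enzyme, 250uM a-KG and 2mM L-alanine and run 30 min at room temperature.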
% is scaled to controls: 0 for no effect and ±100 for the full control effect; potency is read from the fitted curve at half-maximal effect; tags tell the direction and shape of the fitted curve.

Compound	Potency	outcome	activity change, negative = inhibition
COc1cccc(C(=O)N2C(C(=O)NCC(C)C)COC23CCN(C(=O)c2ccc(F)cc2)CC3)c1 (stereo not drawn)	inconclusive [inhibitor, single point]		
CCOC(=O)C1CCCN(C(=O)C2CCc3nnc(C4CCN([S+](=O)([O-])c5ccccc5Cl)CC4)n32)C1 (stereo not drawn)		inactive	
O=C(Cn1nc2c(cc1=O)CCCCC2)NCCc1ccccn1			inactive: -1.33%
Cc1ccc(OCC(=O)N2CCC(CC(=O)N(C)Cc3ccccc3)C2)cc1 (stereo not drawn)		inactive	
COC(=O)c1c(C)cc(OC(=O)c2c(C)cc(OC)cc2OC)cc1O[C@@H]1O[C@H](CO)[C@@H](O)[C@H](O)[C@H]1O	inconclusive [inhibitor, full curve, poor fit]		
O=C1NC2(CCCN(Cc3ccccc3C(F)(F)F)C2)Oc2ccccc21 (stereo not drawn)	inconclusive [inhibitor, full curve, poor fit]		
Nc1nc2c(s1)C(c1ccc(F)cc1F)CC(=O)N2 (stereo not drawn)	inconclusive [inhibitor, full curve, poor fit]		
COc1ccc(Nc2cc3c(cn2)NCCN(Cc2ccccc2)C3)cn1	inconclusive [inhibitor, full curve, poor fit]		
Cc1ccccc1C(=O)NC1CCN(c2cc(-c3ccccc3)[nH]n2)C1 (stereo not drawn)	inconclusive [inhibitor, single point]		
O=C(NCc1ccc(Cl)cc1)c1noc(-c2ccc3c(c2)OCO3)n1	inconclusive [inhibitor, single point]		
CNC(=O)[C@@H]1CN(C(=O)CN2CCOCC2)C[C@H]1COC	inconclusive [inhibitor, single point]		
Cc1cnc(CCNC(=O)C2(c3ccccc3)CC2)n1Cc1ccccc1	inconclusive [inhibitor, single point]		
CC(C)S(=O)(=O)N1CCC(F)(c2nc(-c3ccccc3)no2)CC1	inconclusive [inhibitor, single point]		
O=C([C@@H]1C[C@H](Oc2cccnc2)CN1C(=O)c1n[nH]c(=O)c2ccccc12)N1CCCC1	inconclusive [inhibitor, single point]		
COC(=O)CNC(=O)c1nc(-c2cccc(C(F)(F)F)c2)c2ccccn12	inconclusive [inhibitor, partial curve, poor fit]		
COc1ccccc1-c1cnc(Nc2ccc(CN3CCN(C)CC3)cc2)c2c1CCO2			inactive: 2.68% [at 88.5 µM]
COc1ccc(N2CCN(C(=O)c3ccc4c(c3)N(C)C3CCCCN3C4=O)CC2)cc1 (stereo not drawn)	inconclusive [inhibitor, full curve]		

Compound	Potency	outcome	activity change, negative = inhibition
CCOCC(=O)NC1CCN(c2cnn(C)c(=O)c2)CC1	inconclusive [inhibitor, single point]		
COc1ccccc1C(=O)N1CCC(CCOc2ccc(C)cc2)C1 (stereo not drawn)			inactive: -1.54%
Cc1ccc([S+](=O)([O-])NC2CCCN(Cc3ccc(-c4cc(C)cc(C)c4)cc3)C2)cc1 (stereo not drawn)			inactive: -12.6%
CN(C1CCCc2ccccc21)S(C)(=O)=O (stereo not drawn)		inactive [at 88.5 µM]	
CCCNC(=O)N[C@@H]1CCC[C@@H](C(=O)N(CC)CC)CC(=O)N(C)C1		inactive [at 88.5 µM]	
O=C(Nc1ccc2c(c1)OCCO2)N1CCC(N2CC3CC(C2)[C@H]2CCCC(=O)N2C3)CC1 (stereo partly drawn)	inconclusive [inhibitor, single point]		
Cc1cc(C)n(CC(=O)N2CC(F)(F)C[C@H]2c2nc(C3CC3)no2)n1		inactive	
COc1c2c(cc3c1-c1c(cc4c(c1OC)OCO4)CC(C)C(C)C3)OCO2 (stereo not drawn)	inconclusive [inhibitor, single point]		
O=C(O)C1(c2ccccc2)CCN(S(=O)(=O)c2cccs2)CC1	inconclusive [inhibitor, single point]		
COCCOC1CN(C2CCN(C(=O)CC3CCN(C(C)=O)CC3)CC2)C12CCCCC2 (stereo not drawn)			inactive: -2.1%
COc1cc(SC)ccc1C(=O)N[C@@H]1C=C(C(=O)N[C@H](Cc2ccccc2)C(N)=O)C[C@@H](O)[C@@H]1O	inconclusive [inhibitor, full curve, poor fit]		
O=C(CCC[C@H]1NC[C@@H]2C[C@H]1CN(Cc1ccccc1)C2)Nc1ccc(N2CCOCC2)cc1	active: 7.08 µM		
CCNC(=O)N1CCC(Cc2ccc(C(=O)NCCN3CCN(CC)CC3)cc2)CC1	inconclusive [inhibitor, partial curve, poor fit]		
Cc1ccc(C(=O)N2CCC(CCC(=O)NC3CCCCCC3)CC2)cc1	inconclusive [inhibitor, single point]		
O=C(NCc1cccs1)c1ccc2nnc(-c3cc[nH]c3)n2c1	inconclusive [inhibitor, single point]		
CN1C(=O)C2(CCN(C(=O)CCC3CCCCC3)CC2)c2ccccc21	inconclusive [inhibitor, single point]		
